# Experimental data reported in PubChem BioAssay (NCATS).
# Inconclusive results, whose numbers are uncertain, are shown with a selection of clear calls. For part of these data: A potency beside an inconclusive call is a rough fit, not a confirmed value. Calls of active or inactive are those of the source. The call rests on the fitted dose curve; in most records, active means well fitted curve in the direction sought with a large enough effect; inconclusive means small, poorly fitted or top-dose-only effect, or another doubt; inactive means no such curve, though single readings can be large; an effect the other way counts as inactive or inconclusive.
# Legend:
# [1] = HPAF-II Cancer Cell Toxicity qHTS against the NCATS CANVASS Library (AID 1347346); further: nearly all actives have a fitted effect of over 55% in size; further: potency means the concentration at half of the fitted maximal effect
# Procedure, shortened: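 Using 1000 HPAF-II cells per well, we titrated compounds over 11 concentrations for 72 h at 37 degrees C/5% CO2, with bortezomib as control. Cell survival was quantified by CellTiter-Glo luminescence.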
# [2] = UWB1.289 Cancer Cell Toxicity qHTS against the NCATS CANVASS Library (AID 1347347); further: potency means the concentration at half of the fitted maximal effect; nearly all actives have a fitted effect of over 60% in size
# Procedure, shortened: (§1)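 1000 cells/well seeded and rested 4 h at 37 °C before pin transfer of compounds in an 11-pnt series. Exposure 72 h at 37 °C/5% CO2; viability by CellTiter-Glo luminescence after 15 min at room temperature.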
# [3] = SW1088 Cancer Cell Toxicity qHTS against the NCATS CANVASS Library (AID 1347350); further: potency means the concentration at half of the fitted maximal effect; nearly all actives have a fitted effect of over 75% in size
# Procedure, shortened: as §1
# [4] = KB-8-5-11 Cancer Cell Toxicity qHTS against the NCATS CANVASS Library (AID 1347364); details: activity change, negative = toxicity: at 46.1 µM (top of the series); further: nearly all actives have a fitted effect of over 75% in size
# Procedure, shortened: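 Luminescent ATP signal (CellTiter-Glo, 10 min at room temperature) measured cell survival of KB-8-5-11 after 72 hr compound treatment. For confirmation, the cells were also grown with 1uM tariquidar.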
# [5] = qHTS for ATAD5 Antagonist screened against the NCATS CANVASS Library (AID 1347370); further: nearly all actives have a fitted effect of over 65% in size; further: potency means the concentration at half of the fitted maximal effect
# Procedure, shortened: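 HEK293T-ATAD5 luc reporter, 2000 cells/well; 5hr attach; cpd + 10 uM 5-FUrd; 16hr 37C, 5% CO2. Readouts: CellTiter-Fluor fluorescence (1hr), then Amplite luciferase luminescence (30min RT).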
# [6] = qHTS for Hypoxia signaling pathway (HIF-1) antagonists against the NCATS CANVASS Library (AID 1347374); further: potency means the concentration at half of the fitted maximal effect; nearly all actives have a fitted effect of over 60% in size
# Procedure, shortened: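 Beta-lactamase reporter under HRE control in ME-180 cells; CoCl2 stimulus (60 uM solution as added), compounds 11-pt qHTS, 17 h 37C. CCF4 dye 2 h RT, 460/530 nm emission. CellTiter-Glo viability in same wells.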
# [7] = qHTS for Inflammasome Signaling Inhibitors: IL-1-beta AlphaLISA screen against the NCATS CANVASS Library (AID 1347379);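 further: human THP-1 cells primed with LPS then triggered with ATP; secreted IL-1B measured as AlphaLISA emission at 615 nm; potency means the concentration at half of the fitted maximal effect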
# Procedure, shortened: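 THP-1, 1 hr compound pre-incubation, then LPS 250 ng/mL + ATP 1.25 mM (final); 16 hr total with compound; IL-1B AlphaLISA, ex 680/em 615 nm; 11-point qHTS, up to 57.5 uM final.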
# [8] = qHTS for Antimalaria activity screened against the NCATS CANVASS Library (AID 1347380); further: potency means the concentration at half of the fitted maximal effect; nearly all actives have a fitted effect of over 40% in size
# Procedure, shortened: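 Measures proliferation or cytotoxicity against Dd2 blood stages in 72 h cultures, 11-point qHTS dosing, with SYBR Green fluorescence as read-out; dihydroartemisinin titration served as control.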
# [9] = Cytotoxicity qHTS for assessment of Hepg2 cells membrane integrity screened against the NCATS CANVASS Library (AID 1347387)
# Procedure, shortened: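 Membrane damage in HepG2 monolayers was estimated from released LDH, measured with CytoTox-ONE (ex 560/em 590 nm), after 5 hr treatment across 0.59 nM - 46 uM final.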
# [10] = qHTS for Activators of p53 Stress Response Pathway screened against the NCATS CANVASS Library (AID 1347388); further: potency means the concentration at half of the fitted maximal effect
# Procedure, shortened: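 p53RE-bla HCT-116 cells (4000/well) were pre-incubated for 5 h, then treated with compound (11 points) for 16 h at 37C. After 2 h with CCF4, the 460/530 nm ratio gave reporter activation; CellTiter-Glo measured viability.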
# [11] = qHTS assay for small molecule disruptors of mitochondrial membrane potential screened against the NCATS CANVASS Library (AID 1347389); further: nearly all actives have a fitted effect of over 60% in size
# Procedure, shortened: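 Cells (HepG2) seeded the day before received compound or DMSO for 1 hr, then Mito-MPS dye for 30 min at 37C; emission at 590 nm over 535 nm gave the polarization signal.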
# [12] = qHTS for inhibitors of ER calcium dysfunction: SERCaMP assay screened against the NCATS CANVASS Library (AID 1347393); details: SH-SY5Y GLuc-SERCaMP secretion, thapsigargin, luminescence; series mostly up to 76.6 µM; further: potency means the concentration at half of the fitted maximal effect; nearly all actives have a fitted effect of over 40% in size
# Procedure, shortened: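 SH-SY5Y GLuc-SERCaMP, 1000 cells/well, 4 h attach; cpd 16 h, 37C/5% CO2; thapsigargin (added as 6x 600 nM) 4 h; coelenterazine; luminescence. Reduced reporter release = ER Ca stabilization.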
# [13] = Vero-766 cells viability qHTS against the NCATS CANVASS Library: Counterscreen for Zika virus inhibition assay (AID 1347394); details: Vero 766 viability, CellTiter-Glo luminescence, 72 h; activity change, negative = cytotoxic: at 46.1 µM (top of the series); further: nearly all actives have a fitted effect of over 60% in size; further: potency means the concentration at half of the fitted maximal effect
# Procedure, shortened: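 Uninfected Vero 766 (African green monkey) cells, 1000/well, attached overnight, then exposed 72 h at 37C to compounds (11-point qHTS). Viability read by CellTiter-Glo luminescence; media-only wells served as 100% inhibition.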
# [14] = A2780 Cisplatin Sensitive Ovarian Cancer Cell Toxicity qHTS against the NCATS CANVASS Library (AID 1347353); further: nearly all actives have a fitted effect of over 60% in size
# Procedure, shortened: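 Quantitative HTS format: eleven compound concentrations applied to pre-seeded cells, 72 h incubation at 37 °C, then ATP detection by luminescence.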
# [15] = SDT Cancer Cell Toxicity qHTS against the NCATS CANVASS Library (AID 1347365)
# Procedure, shortened: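 Canine SDT glioma cell toxicity was scored by ATP-dependent luminescence after a 72 hr incubation with an 11-point compound series.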
# [16] = biological target: Nuclear receptor subfamily 1 group I member 3 (Homo sapiens) (UniProt Q14994); assay: qHTS for Constitutive Androstane Receptor (CAR) Agonist screened against the NCATS CANVASS Library (AID 1347373);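 further: every well also contained 1.5 µM PK11195 alongside the test compound; potency means the concentration at half of the fitted maximal effect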
# Sequence of UniProt Q14994 (Q14994 whole entry, looked up): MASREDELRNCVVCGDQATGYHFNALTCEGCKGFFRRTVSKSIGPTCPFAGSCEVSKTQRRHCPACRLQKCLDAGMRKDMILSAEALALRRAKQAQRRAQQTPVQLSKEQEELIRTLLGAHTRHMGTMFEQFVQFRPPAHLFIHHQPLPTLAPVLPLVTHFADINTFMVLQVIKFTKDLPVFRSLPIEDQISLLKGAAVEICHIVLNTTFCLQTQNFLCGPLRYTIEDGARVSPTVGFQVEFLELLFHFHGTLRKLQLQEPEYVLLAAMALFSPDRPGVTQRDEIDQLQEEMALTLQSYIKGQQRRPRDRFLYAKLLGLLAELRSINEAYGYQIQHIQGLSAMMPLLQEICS
# Procedure, shortened: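 In an 11-point concentration series, compounds were incubated 24hr with HepG2 cells carrying hCAR and a CYP2B6-2.2kb reporter, with PK11195 at 1.5uM final. A CellTiter-Fluor viability read preceded the ONE-Glo luminescence read.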
# [17] = DH5-alpha competent E. coli microbial cell viability qHTS against the NCATS CANVASS Library (AID 1347377); details: viability signal change, negative = cytotoxic: at 46.1 µM (top of the series); further: potency means the concentration at half of the fitted maximal effect
# Procedure, shortened: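 Overnight incubation at 37C, 5% CO2 of E. coli DH5-alpha (diluted to 0.2 OD) with compounds precedes BacTiter-Glo addition. Luminescence, acquired after 20 min at room temperature, reflects viable-cell ATP.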
# [18] = qHTS for activators of Nrf2/ARE signaling pathway screened against the NCATS CANVASS Library (AID 1347391)
# Procedure, shortened: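 Activation of Nrf2/ARE was scored in ARE-bla HepG2 cells after 16 h compound exposure using CCF4 beta-lactamase fluorescence ratio readings.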
# [19] = OV-SAHO Cancer Cell Toxicity qHTS against the NCATS CANVASS Library (AID 1347348); details: OV-SAHO viability, CellTiter-Glo luminescence, 72 h; series mostly up to 38.3 µM; further: potency means the concentration at half of the fitted maximal effect; nearly all actives have a fitted effect of over 55% in size
# Procedure, shortened: as §1
# [20] = Redox Reaction Profiling qHTS: Assay Interference Panel against the NCATS CANVASS Library (AID 1347401); further: potency means the concentration at half of the fitted maximal effect
# Procedure, shortened: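 Fluorescence read-out (525 nm excitation, 598 nm emission) at time zero and after 15 min in the dark tracked resorufin formation. Mix: 5 uM resazurin, 200 uM DTT, HEPES pH 7.3 buffer with NaCl.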
# Tags describe the fitted curve by direction and shape.
SMILES,Potency [1],Potency [2],Potency [3],Potency [4],Potency [5],Potency [6],Potency [7],Potency [8],Potency [9],Potency [10],Potency [11],Potency [12],Potency [13],Potency [14],Potency [15],Potency [16],Potency [17],Potency [18],Potency [19],Potency [20]
Oc1ccc([C@H]2Oc3ccc(/C=C/c4cc(O)cc(O)c4)cc3C2c2cc(O)cc(O)c2)cc1 (stereo not given in full),inactive,"inconclusive: 26.5 µM [cytotoxic, single point]","inconclusive: 29.8 µM [cytotoxic, single point]",inactive,inactive,"inconclusive: 23.6 µM [inhibitor, single point]","inconclusive: 30.6 µM [inhibitor, partial curve]",active: 3 nM,inactive,"inconclusive: 33.1 µM [activator, single point]",inactive,"inconclusive: 38.4 µM [inhibitor, partial curve]","inconclusive: 29.5 µM [cytotoxic, partial curve, poor fit]",,,,,,,
C=C1CC[C@@H](Br)C(C)(C)[C@]12CC=C(C)C(=O)C2,"inconclusive: 23.7 µM [cytotoxic, single point]",,"inconclusive: 29.8 µM [cytotoxic, partial curve, poor fit]",,,,,,,,,"inconclusive: 38.4 µM [inhibitor, single point]",,inactive,inactive,"inconclusive: 14.8 µM [activator, partial curve]","inconclusive: 3.7 nM [cytotoxic, full curve, poor fit]",active: 16.6 µM,,
CC(C)C[C@@H]1c2c(O)c(C=O)c(O)c(C=O)c2O[C@]2(C)C=C[C@@H](C(C)C)C[C@H]12,,"inconclusive: 29.8 µM [cytotoxic, single point]","inconclusive: 23.7 µM [cytotoxic, single point]",,"inconclusive: 26.3 µM [inhibitor, partial curve, poor fit]","inconclusive: 29.8 µM [inhibitor, single point]",,"inconclusive: 4.2 nM [cytotoxic, full curve, poor fit]",,"inconclusive: 33.1 µM [activator, partial curve, poor fit]",,,inactive,,,,,,"inconclusive: 21.1 µM [cytotoxic, single point]","inconclusive: 42.9 µM [activator, single point]"
